Data from PubChem BioAssay AID463173 (ICCB-Longwood Screening Facility, Harvard Medical School, 2010).
About 1,700 (3.3%) of roughly 52,000 compounds were called active. No stated cut-off is given here; in the data, active means survival mostly below about 52% (no sharp cut-off); inactive means mostly above about 56%. Some of the results follow.

test system: Wild type; test: S. aureus survival, RN4220 and DeltatarO strains – OD600, teichoic acid synthesis inhibitors, primary screen (AID 463173); details: S. aureus RN4220 wild type/DeltatarO growth, OD600, 18 h, hits give low values, screened at 18.75 µg/mL (by protocol)

Structure (SMILES)	survival
O=C1CC(c2nc3ccccc3[nH]2)CN1c1cccc(Cl)c1 (configuration not stated)	inactive: 89%
Nc1nnc2c(n1)[nH]c1ccccc12	inactive: 75%
COc1cccc(CSc2nc3cc(C(=O)NC4CCCC4)ccc3c(=O)n2Cc2ccccc2)c1	inactive: 59%
COC(=O)c1ccc(CSc2nc3c([nH]c4ccccc43)c(=O)n2-c2ccc(Cl)cc2)o1	inactive: 121%
CCCCNc1nc2c(c(=O)n(Cc3ccc(Cl)cc3)c(=O)n2C)n1C	inactive: 70%
COc1ccc(CN2CCN(Cc3cc(=O)oc4cc(C)ccc34)CC2)c(OC)c1OC	inactive: 119%
COc1ccc(N2CCN(CCN3CCCCC3)CC2)cc1	inactive: 119%
O=C(CSc1nc2ccccc2n1Cc1ccccc1)N1CCN(c2ccc(F)cc2)CC1	inactive: 78%
COc1ccc(-n2cc(C(=O)NCc3ccccc3)c3ccccc3c2=O)cc1	inactive: 85%
O=C(NCCc1nc2ccccc2n1Cc1ccc(F)cc1)c1ccco1	inactive: 81%
COc1ccc(CNC(=O)c2ccc(CS(=O)(=O)c3ccccc3OC)o2)cc1	inactive: 76%
CCOc1ccc(CCNC(=O)Cn2nc(-c3ccc(C)cc3)ccc2=O)cc1OCC	inactive: 68%
Cc1ccc(C)c(-c2[nH]c3c(c2-c2c(-n4cccc4)n(C)c(=O)[nH]c2=O)c(=O)[nH]c(=O)n3C)c1	inactive: 88%
CCN(CC)S(=O)(=O)c1ccc2c(c1)N(CC(=O)N1CCN(c3ccc(F)cc3)CC1)C(=O)CO2	inactive: 110%
Cc1ccc(-c2nc(CCNC(=O)C(=O)Nc3ccc(C)cc3C)cs2)cc1	inactive: 53%
COc1cc(CN2CCN(S(=O)(=O)c3ccccc3)CC2)cc(OC)c1O	inactive: 71%
CCc1ccccc1NC(=O)C1=C(C)C(=O)OC12CCCCCC2	inactive: 49%
O=C(CC1COc2ccccc2O1)NCc1ccccc1 (configuration not stated)	inactive: 105%
O=C(CNS(=O)(=O)c1cccs1)N1CCN(c2cccc(C(F)(F)F)c2)CC1	inactive: 89%

Structure (SMILES)	survival
COc1cc(NC(=O)CSc2ncc(S(=O)(=O)c3ccc(Br)cc3)c(=O)[nH]2)cc(OC)c1	inactive: 84%
Cc1c2cnn(CC(=O)NCCc3ccccc3)c(=O)c2c(C)n1Cc1ccccc1	inactive: 96%
CCC(C)(C)n1nnnc1C(c1cccnc1)N1CCCC(C)C1 (configuration not stated)	inactive: 121%
Cc1cccc(NC(=O)C(=O)NCC(c2ccc3c(c2)OCO3)N2CCN(C)CC2)c1C (configuration not stated)	inactive: 71%
COc1ccc(OC)c(NC(=O)c2cccn2-c2nnc(N3CCCCC3)s2)c1	inactive: 59%
COc1ccc(CNC(=O)c2cc3c(=O)oc4ccc(C)cc4c3s2)c(OC)c1	inactive: 85%
O=C(O)C1CCN(C(=O)c2cccs2)CC1	inactive: 109%
Fc1ccc(-c2noc3ncnc(NC4CCCCC4)c23)cc1	inactive: 76%
Cc1cc(Nc2cccc(Cl)c2)nc2ccc(NC(=O)Cc3cccc(C(F)(F)F)c3)cc12	inactive: 75%
Cc1cccc(N2CCN(C(=O)CCCCn3c(=O)[nH]c4ccsc4c3=O)CC2)c1C	inactive: 50%
COc1ccc(Cn2c(=O)c3oc4ccccc4c3n(Cc3ccc(F)cc3)c2=O)cc1	inactive: 91%
COc1cc(C2CC(=O)Nc3cc4c(cc32)OCCO4)cc(Br)c1OC (configuration not stated)	inactive: 93%
CCN(CC)S(=O)(=O)c1ccc2oc(C(=O)N(C)Cc3ccccc3)c(C)c2c1	inactive: 54%
CCCCOc1cccc(C(=O)N(Cc2sccc2C)C2CCS(=O)(=O)C2)c1 (configuration not stated)	inactive: 90%
CCCC(=O)N1CCCC(c2nc3c(nnn3Cc3ccccc3)c(=O)[nH]2)C1 (configuration not stated)	inactive: 106%
O=C(NCCCc1ccccc1)C1CCN(C(=O)N2CCOc3ccc(Cl)cc32)CC1	inactive: 85%
CCOc1ccccc1NC(=O)CCn1nc(C)c(S(=O)(=O)N2CCCCC2)c1C	inactive: 76%
COc1ccc(C2C=C(c3ccccc3)Nc3nc(NC(=O)/C=C/c4ccccc4)nn32)cc1 (configuration not stated)	inactive: 74%
Cn1ccc2c(OCC(=O)Nc3cc(C(F)(F)F)ccc3Cl)cccc2c1=O	inactive: 75%

Structure (SMILES)	survival
CCN(CC)S(=O)(=O)c1ccc2c(c1)c(=O)c(C(=O)N1CCN(c3ccc(F)cc3)CC1)cn2C	inactive: 132%
COC(=O)CCN(c1ccccc1)S(=O)(=O)c1cc(-c2cc(C)no2)ccc1OC	inactive: 90%
CCN1CCSc2ccc(C(=O)NCc3ccc(OC)cc3)cc21	inactive: 87%
CC(C(=O)N1CCCCC1)N(c1ccccc1)S(C)(=O)=O (configuration not stated)	inactive: 99%
O=C(Nc1ccccc1)c1cc2sccc2n1Cc1ccccc1	inactive: 132%
O=C(Cn1ncc2c3ccccc3n(Cc3cccc(Cl)c3)c2c1=O)NC1CCCCCC1	inactive: 125%
CC(=O)N1CCc2cc(S(=O)(=O)CCC(=O)NCc3ccc(Cl)cc3)ccc21	inactive: 68%
CCc1ccc(NC(=O)CSC2=Nc3ccccc3C3=NC(CC(=O)NCc4ccccc4)C(=O)N23)cc1 (configuration not stated)	inactive: 91%
CS(=O)(=O)N1CCC(N2CCN(Cc3ccccc3)C(=O)C2=O)CC1	inactive: 77%
COC(=O)c1sc(N)c(C#N)c1C	inactive: 93%
CCOc1ccc2oc(=O)cc(CN3CCN(C(=O)c4ccc(F)cc4)CC3)c2c1	inactive: 56%
CCNC(=O)CC1C(=O)N(c2cccc(OC)c2)C(=O)N1Cc1ccc(OC)c(OC)c1 (configuration not stated)	inactive: 81%
CCc1ccc(-c2nc(CS(=O)CC(=O)NCCc3ccc(Cl)cc3)c(C)o2)cc1 (configuration not stated)	inactive: 63%
O=C1CCSC2(C(=O)N(Cc3ccc(F)cc3)c3ccccc32)N1c1ccc(F)c(F)c1 (configuration not stated)	inactive: 68%
Cc1nc2ncnn2c(C)c1CCC(=O)NCc1ccccc1Cl	inactive: 69%
O=S(=O)(Nc1cccc(-c2ccc(N3CCCCCC3)nn2)c1)c1cccc(F)c1	inactive: 56%
CCOc1ccccc1N(CC(=O)N1CCc2ccccc2C1)S(=O)(=O)c1ccccc1	inactive: 57%
N#CCn1cc(C(=O)C(F)(F)F)c2ccccc21	inactive: 116%
Cc1c(C(=O)Nc2cccc(Cl)c2)oc2ccc(S(=O)(=O)N(C)C3CCCCC3)cc12	inactive: 74%
